Some of the results follow. At the low end of the ranking the order means little.
These sequences were tested against SIX1 homeodomain (reference allele) (UniProt Q15475) (assay: universal protein binding microarray). Settings: Universal all-10-mer PBM (8x60K, AMADID 030236), 300 nM GST-tagged protein, Alexa Fluor 488 anti-GST; buffer, salt, pH and temperature not stated; high values mean tight binding; most listed sequences are background and not binding sites; double strand, one strand shown.

Row | Sequence | binding signal [E-score]
1 | AACTGCAC | -0.0828
2 | CATTTGCC | -0.205
3 | ACTCCACC | -0.0268
4 | GCCTATAA | 0.161
5 | CAAAACGC | -0.288
6 | CACTCATA | 0.24
7 | ACCCTATG | 0.0101
8 | AACGGCAA | -0.272
9 | ACAAACAC | -0.0276
10 | CGATCACA | 0.273
11 | GTCCATAA | -0.139
12 | ACTTAGCT | -0.167
13 | AGGCGAAA | -0.14
14 | TCTTGGAA | 0.0165
15 | ACCTGTCC | -0.139
16 | AATTCATA | -0.0467
17 | TCCAAGAA | -0.0352
18 | GTTTCATA | 0.0335
19 | AGTATGGG | 0.0403
20 | CGCTTGTC | -0.117
21 | CGATGGCA | -0.036
22 | ATCGGTTG | 0.238
23 | ATCCTGGG | 0.235
24 | CTCATTCC | 0.0252
25 | GCATTTAA | -0.281

Row | Sequence | binding signal [E-score]
26 | GTTGACTA | -0.158
27 | CGTCAGTC | -0.228
28 | CCAGGTAC | 0.0467
29 | CTGCTTTA | -0.224
30 | CGAATACG | 0.2
31 | CGCGGACC | -0.193
32 | CAATTTCC | -0.143
33 | AAATTAGT | -0.203
34 | TCTTAGAA | -0.0363
35 | ATAGTTGG | -0.0335
36 | ACAGCCTG | -0.176
37 | ACAGCAAA | -0.133
38 | ACTAGACT | -0.081
39 | ATAGAAGA | -0.121
40 | AGCACCAT | -0.0721
41 | CGAGGGGC | -0.123
42 | CTCAAGTC | -0.142
43 | ACTACATG | -0.00953
44 | ACAGCTTC | -0.166
45 | CATAGTTA | -0.0519
46 | ATAGATAG | 0.167
47 | GCGTTACA | -0.0302
48 | CGGTTTTA | -0.022
49 | ACCACTGC | -0.0458
50 | CCACAGGC | -0.0147

Row | Sequence | binding signal [E-score]
51 | CTTGGAGA | -0.00193
52 | CCACGTGC | -0.0599
53 | GTAACAAC | -0.26
54 | AATCTGGA | 0.0634
55 | CAGAAACC | 0.0324
56 | TGGAGGAA | -0.0637
57 | CCTGGCGA | -0.0144
58 | AATAACGT | -0.127
59 | ACTACATC | -0.0118
60 | CCCAGCGC | -0.102
61 | AACTCCGT | -0.12
62 | GAGTAGCC | -0.0944
63 | GAAATGTC | -0.144
64 | CGGATAGA | 0.355
65 | AACGAAAA | -0.211
66 | GTACAGCA | -0.146
67 | TCTGAACA | 0.129
68 | GCAAAGCC | -0.245
69 | AGCGTTTC | -0.262
70 | CGGTAAGC | -0.065
71 | GACGATGC | -0.111
72 | CCACGTAC | -0.1
73 | AATTTTGA | -0.105
74 | AAGTGTAA | -0.0758
75 | ATACTTTG | 0.253

Row | Sequence | binding signal [E-score]
76 | CGAGATAA | 0.0897
77 | ATAAATAC | 0.163
78 | GATAGACA | 0.135
79 | CCCGGGCA | 0.143
80 | ACCCGGGG | 0.094
81 | AATTAACT | -0.29
82 | AGTAAGTC | -0.117
83 | ACATTACA | -0.0935
84 | AGTGTCAG | 0.115
85 | CTATTGAG | 0.121
86 | TCAACCGA | 0.149
87 | CAGCGGAC | -0.198
88 | ATTTCGTC | 0.0288
89 | AGATGTCG | -0.0943
90 | ACAATTCT | -0.249
91 | GAATAGTA | 0.113
92 | CAACAACA | 0.0126
93 | AGTAATCG | -0.0635
94 | GTACGCGA | -0.117
95 | ACTTGGGA | -0.165
96 | CGTCTCTC | 0.0464
97 | AGGGACCA | -0.156
98 | ATTCTTAG | -0.0225
99 | GATAAAAC | 0.164
100 | AGGTTACC | -0.164

Row | Sequence | binding signal [E-score]
101 | GAAACTTC | -0.369
102 | AACCCGCA | -0.021
103 | ATCACTAG | 0.262
104 | CGGTGCGC | -0.0469
105 | ATAAGATA | 0.28
106 | ACTTCGAC | -0.151
107 | ACGGACAC | 0.0901
108 | CACGCAAA | -0.0111
109 | CATTGACC | -0.0678
110 | CGAGCAGC | 0.00537
111 | ATTTTATC | 0.0655
112 | ATCTGGGC | 0.24
113 | ACGTTAAT | -0.0578
114 | ATTACTAG | -0.107
115 | ATACGTAC | 0.336
116 | ATTAGTGA | 0.152
117 | ATTCTAAC | -0.00892
118 | GCACAGGC | -0.0625
119 | AGGGGGCG | -0.0452
120 | GAGACATC | 0.0479
121 | ATGACTTG | -0.245
122 | ATGCCTTA | 0.0223
123 | TAGGGAAA | -0.114
124 | AAGCTCAT | -0.0834
125 | CGAAAATA | 0.143

Row | Sequence | binding signal [E-score]
126 | GAAGAGCA | -0.195
127 | ATCGGTAG | 0.114
128 | CACCCGGA | 0.276
129 | CGAAGTCG | -0.22
130 | TACCAATA | 0.204
131 | CGCCCCGC | -0.0403
132 | CGTGGCTA | -0.0774
133 | ATCAGGCG | 0.25
134 | TAATAAGA | -0.105
135 | TACTGATA | 0.418
136 | GATCGGTA | 0.336
137 | ATGTGCGC | -0.182
138 | TATCCGAA | 0.334
139 | CACAGACA | 0.0152
140 | AACAAGAG | -0.208
141 | CAATGTTA | -0.229
142 | AACGACTA | -0.0864
143 | CTATAGCA | 0.0266
144 | GGCAGACA | -0.157
145 | ACAACACG | 0.0354
146 | GCTTGGTA | 0.108
147 | AAAAAGGA | -0.0833
148 | CGAGCTAG | 0.0143
149 | CTCACTAC | 0.0261
150 | AACGTAGA | -0.0516

Row | Sequence | binding signal [E-score]
151 | GCGATAGA | 0.0476
152 | GGCCGTGA | -0.102
153 | GGACGTAC | -0.182
154 | AGCGAGAT | 0.217
155 | CTTAACGC | -0.126
156 | GCAGACTA | -0.218
157 | CGGCGGAG | 0.042
158 | TGGGAGAA | -0.0945
159 | CGAATGTA | 0.0571
160 | GGCAATCA | -0.0816
161 | AGGACAAA | -0.328
162 | GTTCTGGA | -0.0068
163 | CAATATCA | 0.306
164 | CGCAGACA | -0.111
165 | CTAAAGTC | -0.232
166 | ACGAGTAA | -0.0391
167 | GTGAGCCA | -0.0401
168 | GAAGGACA | -0.131
169 | GTGCGCCA | -0.142
170 | CAGGGCGG | -0.00367
171 | GCCCAAAC | -0.146
172 | AGGGATTA | 0.305

From publication PMC10668032
